Experimental data as given in the supplement of paper PMC10126150.
Values marked as one replicate rest on one cluster of the flow cell; about a third of the high ones do not repeat.

System: ATP
Experiment: switch fluorescence ratio, 500 uM ATP over buffer (Cy3 cluster intensity, sum of 5 cycles each) (fold (ratio)); higher = stronger signal-on switching upon ATP binding; sequences stand for … in TCGTCGGCAGCGTCAGATGTGTATAAGAGACAGTTTTTTTTTTTTTTTTTTTTTTTTT…TC
Details: aptamer strand: ATP DNA aptamer (quencher-CACCTGGGGGAGTATTGCGGAGGAAGG + anchor), 100 nM annealed; ATP concentration: 500 uM; one replicate
In short: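 Cy3-labelled switching-strand clusters on a modified Illumina MiSeq flow-cell were annealed to 100 nM quencher-labelled ATP aptamer, imaged in selection buffer, then imaged after 15 min with 500 uM ATP at 22 °C. Five buffer/ATP cycles ran, with NaOH stripping and re-annealing between them. The fluorescence ratio is summed target-cycle over summed buffer-cycle Cy3 intensity per cluster, averaged per switch-domain sequence. Clusters outside 100-1000 RFU were excluded.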
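Further: ATP exposure 15 min at 22 °C before imaging.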

| Sequence | switch fluorescence ratio |
| --- | --- |
| CTTCCCTCGT | 1.21 |
| CCGTAGGTAT | 1.11 |
| CTCGACACGA | 1.11 |
| AAGATTATAC | 1.01 |
| AGGTGGTG | 0.979 |
| TTTCGCTAAA | 1.03 |
| GCAGGAAACC | 1.05 |
| AGCCTGTCGT | 1.02 |
| GTAACGGCAA | 1.31 |
| GGTCCGGTCG | 0.996 |
| ACTTTGATGA | 1 |
| TTTTGGAAG | 1.01 |
| TCGGCAGCAT | 2.12 |
| AGGTTTTACG | 1 |
| CCAGTGACAC | 0.994 |
| GACGGTGAAC | 1.15 |
| AGCCAAAGTG | 1.01 |
| GTCATAAGG | 1.01 |
| AACGTTTGGG | 1.02 |
| CACACTTGAC | 1.04 |
| ACCACTATAT | 1.09 |
| TGGGAAAGTG | 0.98 |
| CATGAAGAGT | 0.98 |

| Sequence | switch fluorescence ratio |
| --- | --- |
| TAGGAAACG | 0.983 |
| AAAGTATAAG | 0.964 |
| GGCATATAC | 2.07 |
| ATCGCTATGA | 1.04 |
| CTAAAAAGTA | 0.982 |
| GTCTTACGTT | 0.997 |
| AGGTACGCAA | 3.84 |
| GAAGGGTGTG | 0.977 |
| ATATTTTACA | 1.05 |
| CATTGTTCGT | 0.997 |
| AGCCCATACC | 1.18 |
| GATGTTGGCC | 1.02 |
| AGGATGTGGT | 0.96 |
| TCCGCGGGCA | 1.28 |
| CTGCGACTCA | 1.15 |
| TAAATTGACC | 1 |
| ATGACTATAA | 0.981 |
| AAATTAAACA | 0.995 |
| CGAAGGCTT | 0.969 |
| ACCGCCACGG | 0.995 |
| AGATATTA | 1.01 |
| GGACTGGCCG | 1.01 |
| ACAGGGTTGC | 1 |

| Sequence | switch fluorescence ratio |
| --- | --- |
| GGTTATATTG | 0.968 |
| CAATGTCGAG | 0.998 |
| GAGTCTGATG | 0.973 |
| TAGGGCAGAC | 1.12 |
| GTTCCCTGGG | 1.07 |
| GCGTCGGGTA | 1.02 |
| GCTGTTATAA | 1.01 |
| GGTCCCTGGT | 1 |
| TAGATTTCCA | 0.953 |
| GATCGAGTAC | 0.965 |
| ACGTGCTTGC | 0.989 |
| CTTCCGTCTG | 1.56 |
| TTTGAGAGGC | 0.989 |
| AGATGAAAAT | 0.981 |
| CTCACATG | 0.973 |
| TCTTCCTTTT | 1.27 |
| ATTTCGTGTC | 1.02 |
| TAGCATCCAC | 1.24 |
| ACTAGATAGC | 0.993 |
| CAGAAGCCGT | 1.01 |
| CGTATGAGTA | 1.01 |
| ATATTCTTCG | 1.07 |
| TATTTAAGGA | 0.991 |

| Sequence | switch fluorescence ratio |
| --- | --- |
| AATGCTAAAG | 1.02 |
| GGGGTCAGGC | 0.998 |
| CAGATATGAC | 0.995 |
| CCTGAATAGG | 0.961 |
| TACGGCCACA | 1.22 |
| GGACCAGCCG | 1.08 |
| GGTAACCGTG | 0.968 |
| TGCAGCGGAT | 0.987 |
| ACTCGTGAGA | 1.03 |
| AATGTATGTC | 0.965 |
| ATACGATTCA | 1.01 |
| TAGGATA | 0.994 |
| GCGCAGGGTT | 1.02 |
| TGGTTGATGG | 1.01 |
| TTTATATCAC | 1.08 |
| ACTGCCAATT | 1.13 |
| ATATGGTAAC | 1.04 |
| CCCTTCGGGC | 1.01 |
| ATGTACCGGA | 0.999 |
| TAGAAGGCGG | 1.01 |
| AATTGGGCAA | 1.04 |
| GCTGGGCAGT | 0.999 |
| CACAATAGGA | 1.1 |

| Sequence | switch fluorescence ratio |
| --- | --- |
| TACTGTGCTG | 1.01 |
| GCGCTATTGA | 1.02 |
| TTAGTACAGT | 1.08 |
| GGTAAGGCCT | 0.966 |
| TCTAGACAAA | 0.998 |
| TCCCTATGGG | 1.1 |
| AACCTACTGG | 1.04 |
| CTTCAAAACT | 1.02 |
| GACAAGTAGA | 0.982 |
| TAGTCTTTAA | 1.03 |
| GGTGCTCTCG | 1 |
| CGTTTGGGGC | 0.983 |
| TGATATATAT | 1 |
| TCAAGGCCCC | 0.969 |
| TCAATGGAGT | 1 |
| TGCTGCATA | 1.02 |
| CATCCTGATT | 0.996 |
| AGACCAATTG | 1.01 |
| AACATAAGGG | 1 |
| GCGTTTTGTG | 0.979 |
| GGAGACGCAA | 3.53 |
| GGGCTGGCAG | 0.938 |
| TCGTTAAAGT | 1.16 |

| Sequence | switch fluorescence ratio |
| --- | --- |
| GGGGTCTCGT | 0.984 |
| TCTATAGAGT | 1.03 |
| GATAATGGCT | 1.01 |
| GGACTAAATG | 1.01 |
| AACGGACTAA | 1.26 |
| GCCTAGTGAA | 1.01 |
| AGGGGCCCC | 1.02 |
| TCATATCAA | 0.977 |
| AAAACGGTTA | 1.02 |
| CTGGGGAGCC | 0.993 |
| CTGGGAACAA | 1.06 |
| CTTAGTAGAC | 1.08 |
| GGCTAGTTTG | 0.998 |
| GCGCTAGGGT | 1.01 |
| AGTCAGACT | 0.994 |
| ATAACGTTTG | 0.983 |
| AGGGAGATGA | 1.01 |
| TCATTTGAAT | 1.02 |
| TAGGAGGCT | 1 |
| CTTGGAGGCT | 1 |
| TTGGTCGATG | 0.961 |
| AGCATCCGTC | 1.09 |
| CTGAGAAGTA | 0.983 |

| Sequence | switch fluorescence ratio |
| --- | --- |
| AGGAAATGCA | 0.986 |
| GTAATCGGGA | 1.03 |
| ACATAGTTGC | 0.993 |
| ACGGTCTTTT | 1.03 |
| CCTTACTGCT | 1.07 |
| GGTCTGATCG | 0.973 |
| TTGGAGGG | 1.04 |
| TTAGCATACA | 1.78 |
| AGAGGATAAA | 1.01 |
| GCGGAAATAT | 0.983 |
| ACTTGAGTTA | 1.02 |
| TCTGATCGGG | 1.03 |
| TTTCACGTAC | 1.77 |
| GCGGGGGCCT | 0.937 |
| GACCGGACCC | 1.21 |
| GATATCCCAT | 0.99 |
| TGAGTATAAG | 0.974 |
| TTTAAGTTCA | 0.979 |
| GGGACAGCAA | 1.87 |
